We go through ten molecules from US20230416360A1 (SIMCERE ZAIMING PHARMACEUTICAL, published 2023).

In test [1] the target is T1, human CD22-ECD-His (human, UniProt P20273 20-687).
T1 construct: Made in HEK293E, purified on nickel column; also called hCD22-ECD-His; recombinant human CD22-ECD His; not shown: His tag
T1 sequence: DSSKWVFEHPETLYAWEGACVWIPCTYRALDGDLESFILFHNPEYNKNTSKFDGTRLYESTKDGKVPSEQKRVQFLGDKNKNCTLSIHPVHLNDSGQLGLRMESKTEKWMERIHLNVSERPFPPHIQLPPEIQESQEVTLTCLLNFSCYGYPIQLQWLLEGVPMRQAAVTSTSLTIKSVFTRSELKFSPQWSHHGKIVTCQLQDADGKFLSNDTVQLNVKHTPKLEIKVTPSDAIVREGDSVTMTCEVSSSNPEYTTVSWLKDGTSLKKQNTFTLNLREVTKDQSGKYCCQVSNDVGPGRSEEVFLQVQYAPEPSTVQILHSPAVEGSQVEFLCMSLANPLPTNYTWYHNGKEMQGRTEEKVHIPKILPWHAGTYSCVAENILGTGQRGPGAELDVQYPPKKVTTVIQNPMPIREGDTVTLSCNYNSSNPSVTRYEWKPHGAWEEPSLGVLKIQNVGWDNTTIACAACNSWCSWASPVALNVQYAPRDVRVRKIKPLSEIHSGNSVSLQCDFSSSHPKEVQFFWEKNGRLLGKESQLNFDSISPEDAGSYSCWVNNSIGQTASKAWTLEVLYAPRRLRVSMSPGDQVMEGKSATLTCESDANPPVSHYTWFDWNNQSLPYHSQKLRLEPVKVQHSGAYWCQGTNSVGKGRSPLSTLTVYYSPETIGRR
Description: ELISA, coated hCD22-ECD-His, antibody 10 nM. As to the method: (§1) The plate was sealed with plastic film and incubated overnight at 4° C., the plate was washed 2 times with PBS the next day, and then a blocking solution [PBS+2% (w/w) BSA] was added for blocking at room temperature for 2 hours. […] After incubation at 37° C. for 2 hours, the plate was washed 3 times with PBS. HRP (horseradish peroxidase)-labeled secondary antibody (purchased from Sigma, catalog number: A0170) was added, and incubated at 37° C. for 2 hours, and the plate was washed 5 times with PBS. TMB substrate was added at 50 μl/well, and incubated at room temperature for 30 minutes, then a stop solution (1.0 N HCl) was added at 50 μl/well.
On the technique in general: In an ELISA, binding on a coated surface is turned into a signal by an enzyme label.

Test [2] deals with T2, murine CD22-ECD-His (mouse, UniProt P35329 22-708).
T2 construct: extracellular domain; Bought; also called mouse CD22; murine CD22 protein
T2 sequence (looked up): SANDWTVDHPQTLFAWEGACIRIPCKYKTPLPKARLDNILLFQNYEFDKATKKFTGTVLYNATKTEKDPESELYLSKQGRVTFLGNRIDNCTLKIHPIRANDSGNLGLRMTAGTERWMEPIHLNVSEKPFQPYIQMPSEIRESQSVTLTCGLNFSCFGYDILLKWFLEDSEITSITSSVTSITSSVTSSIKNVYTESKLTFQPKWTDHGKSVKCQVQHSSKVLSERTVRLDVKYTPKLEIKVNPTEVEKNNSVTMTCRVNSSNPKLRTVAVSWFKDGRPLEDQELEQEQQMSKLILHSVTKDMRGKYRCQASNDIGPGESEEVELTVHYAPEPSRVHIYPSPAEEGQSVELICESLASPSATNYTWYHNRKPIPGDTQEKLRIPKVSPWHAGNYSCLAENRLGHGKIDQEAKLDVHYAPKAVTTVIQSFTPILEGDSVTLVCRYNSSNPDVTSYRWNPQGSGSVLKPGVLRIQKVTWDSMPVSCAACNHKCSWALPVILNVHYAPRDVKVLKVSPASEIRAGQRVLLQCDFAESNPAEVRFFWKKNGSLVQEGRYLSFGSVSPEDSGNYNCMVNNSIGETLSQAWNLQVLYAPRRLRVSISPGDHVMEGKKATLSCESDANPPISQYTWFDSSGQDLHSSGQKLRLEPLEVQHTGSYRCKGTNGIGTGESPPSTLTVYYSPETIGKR
The test can be described thus: ELISA, coated mouse CD22, antibody 0.001 nM. As to the method: as §1

Test [3] has as its target T2, murine CD22-ECD-His. Description: ELISA, coated mouse CD22, antibody 100 nM. As to the method:
as §1

Test [4] has as its target T1, human CD22-ECD-His. Description: ELISA, coated hCD22-ECD-His, antibody 0.001 nM. As to the method: as §1
Test [5] concerns the target T2, murine CD22-ECD-His. The test can be described thus: ELISA, coated mouse CD22, antibody 0.00001 nM. As to the method: as §1
In test [6] the target is T1, human CD22-ECD-His. Description: ELISA, coated hCD22-ECD-His, antibody 0.00001 nM. As to the method: as §1
The target in test [7] is T3, cynomolgus monkey CD22 on peripheral blood B cells (cynomolgus monkey (Macaca fascicularis)).
T3 construct: whole, on cells; also called cynomolgus monkey B cells
The test can be described thus: FACS, cynomolgus PBMC, CD20+ B cells, antibody 1 nM. As to the method:
After the cell suspension was centrifuged, the cells were resuspended in PBS containing 1% BSA, and then the cells were counted. […] After washing the cells three times, APC-labeled secondary antibody anti-human IgG Fc (catalog number: 409306, purchased from Biolegend) was added. After incubation at room temperature in the dark for 30 minutes, the cells were washed 5 times, gently resuspended with PBS containing 1% BSA, and detected and analyzed by FACS (FACS Canto™, purchased from BD Company).

B1: S002-NB151-51 VHH-Fc (Fc fusion)
chain: QVQLVESGGGLVQAGGSLRLSCAASGITSDDYAIGWFRQAPGKEREGVSCMYSSDGSTYYADSVKGRFTISRDNAKNTVYLQMNSLRPEDTAVYHCAAGPWCFVTGVGREEWGQGTQVTVSS[human IgG1 Fc with changes cut from this listing]
notes: VHH cloned into vector BI3.4-huIgG1 (hinge and human IgG1 Fc), made in HEK293E; also called 5002-NB151-51
Consider B1, for which the OD450 is 1.69 with human CD22-ECD-His [1]; 0.13 in the test with murine CD22-ECD-His [2]; 2.31 with murine CD22-ECD-His [3]; 0.18 with human CD22-ECD-His [4]; 0.07 with murine CD22-ECD-His [5]; 0.07 with human CD22-ECD-His [6]. In test [7], the “Proportion of VHH-Fc antibody positive cells to B cells (%)” value (“Proportion … (%)” below) stood at 90%.

B2: S002-NB150-159n VHH-Fc (Fc fusion)
chain: QVQLVESGGGLVQAGDSLRLACEASGRTATISTMGWFRQAPGKEREFVGRIDWSAESTYIVDSVKGRFIISRDNAKNAGYLQMNSLKPVDTAVYYCAAIVVRERSYKYWGQGTQVTVSS[human IgG1 Fc with changes cut from this listing]
notes: VHH cloned into vector BI3.4-huIgG1 (hinge and human IgG1 Fc), made in HEK293E; also called S002-NB150-15911
In the case of B2, the OD450 was 2.58 with human CD22-ECD-His [1]; 0.05 with murine CD22-ECD-His [2]; 0.07 with murine CD22-ECD-His [3]; 0.2 with human CD22-ECD-His [4]; 0.05 with murine CD22-ECD-His [5]; 0.07 in the test with human CD22-ECD-His [6]. Further, the “Proportion … (%)” value in test [7] worked out at 4%.

B3: S002-NB151-92 VHH-Fc (Fc fusion)
chain: QVQLVESGGGLVQSGGSLRLSCAASGFTFSDYTMNWVRQAPGKGLEWVSEISSGGHFKSNADSVKDRFTISRDNAKNTLYLQMNSLKPEDTAVYFCAKCPRPSVYCRDYESTSLYRGQGTQVTVSS[human IgG1 Fc with changes cut from this listing]
notes: VHH cloned into vector BI3.4-huIgG1 (hinge and human IgG1 Fc), made in HEK293E; also called 5002-NB151-92
In the case of B3, the OD450 in the test with human CD22-ECD-His [1] came out at 2.15; with murine CD22-ECD-His [2], 0.05; with murine CD22-ECD-His [3] it was 0.07; with human CD22-ECD-His [4] it was 0.17; with murine CD22-ECD-His [5], 0.06; with human CD22-ECD-His [6] it was 0.06. Also, in test [7], the “Proportion … (%)” value was determined as 54%.

B4: S002-NB151-13 VHH-Fc (Fc fusion)
chain: QVQLVESGGGLVQAGDSLRLSCAASTRIFRSYVMGWFRQAPGKEREAVASIRWSNDTGTYADSVKGRFTISRDNAKNTVYLQMNSLKPEDTAVYSCAADSPPWGRTWYTGYDYWGQGTQVTVSS[human IgG1 Fc with changes cut from this listing]
notes: VHH cloned into vector BI3.4-huIgG1 (hinge and human IgG1 Fc), made in HEK293E
For the molecule B4, the OD450 stood at 1.87 with human CD22-ECD-His [1], 0.39 with human CD22-ECD-His [4] and 0.2 with human CD22-ECD-His [6]. For the same molecule, the “Proportion … (%)” value in test [7] is 3%.

B5: S002-NB151-30 VHH-Fc (Fc fusion)
chain: QVQLVESGGGLVQAGGSLRLSCAASGRASGSGAMGWFRQAPGQERRFVAGIEWSSGGPVYADSVKGRFTLSRDNAKNTVHLQMNSLKPEDTAVYYCAAAPWVFSSPDDYMYWGQGTQVTVSS[human IgG1 Fc with changes cut from this listing]
notes: VHH cloned into vector BI3.4-huIgG1 (hinge and human IgG1 Fc), made in HEK293E; also called 5002-NB151-30
Turning to B5, the OD450 with human CD22-ECD-His [1] was 1.72; with murine CD22-ECD-His [2], 0.06; with murine CD22-ECD-His [3] it was 0.12; with human CD22-ECD-His [4], 0.22; with murine CD22-ECD-His [5], 0.07; with human CD22-ECD-His [6], 0.11. Moreover, the “Proportion … (%)” value in test [7] was 32%.

B6: S002-NB151-23 VHH-Fc (Fc fusion)
chain: QVQLVESGGGLVQAGGSLTVSCTNSGRTLSTSTIAWFRQKPGKDSEFVAAIRWSGGMGWYADSVKGRFTISRDNAENTVSLQMNTLQPEDTAVYFCAVSTVPYYGSIYTRVGDYPYWGQGTQVTVSS[human IgG1 Fc with changes cut from this listing]
notes: VHH cloned into vector BI3.4-huIgG1 (hinge and human IgG1 Fc), made in HEK293E; also called 5002-NB151-23
Turning to B6, the OD450 with human CD22-ECD-His [1] was 1.24; in the test with murine CD22-ECD-His [2], 0.06; in the test with murine CD22-ECD-His [3], 0.14; in the test with human CD22-ECD-His [4] it was 0.35; in the test with murine CD22-ECD-His [5] it was 0.07; with human CD22-ECD-His [6], 0.26. For the same molecule, the “Proportion … (%)” value in test [7] was found to be 85%.

B7: HA22 scFv-hFc (Fc fusion)
chain: EVQLVESGGGLVKPGGSLKLSCAASGFAFSIYDMSWVRQTPEKCLEWVAYISSGGGTTYYPDTVKGRFTISRDNAKNTLYLQMSSLKSEDTAMYYCARHSGYGTHWGVLFAYWGQGTLVTVSAGGGGSGGGGSGGGGSDIQMTQTTSSLSASLGDRVTISCRASQDISNYLNWYQQKPDGTVKLLIYYTSILHSGVPSRFSGSGSGTDYSLTISNLEQEDFATYFCQQGNTLPWTFGCGTKLEIK[human IgG1 Fc with changes cut from this listing]
Turning to B7, the OD450 with human CD22-ECD-His [1] is 1.92; in the test with human CD22-ECD-His [4], 0.13; in the test with human CD22-ECD-His [6], 0.06. The “Proportion … (%)” value in test [7] was found to be 59%.

B8: S002-NB151-2 VHH-Fc (Fc fusion)
chain: QVQLVESGGGLVQAGDSLRLSCAASGRTFSPSTMAWFRQAPGKERELVARIGWTYGDTYYVDSAKGRFTISMDNVKNTVYLQMNSLKPEDTAVYYCAALFRGGLSYNFSNRGTQVTVSS[human IgG1 Fc with changes cut from this listing]
notes: VHH cloned into vector BI3.4-huIgG1 (hinge and human IgG1 Fc), made in HEK293E; also called 5002-NB151-2
B8: the OD450 with human CD22-ECD-His [1] worked out at 1.86; with murine CD22-ECD-His [2] it was 0.05; with murine CD22-ECD-His [3], 0.08; with human CD22-ECD-His [4], 0.54; in the test with murine CD22-ECD-His [5], 0.05; with human CD22-ECD-His [6], 0.17. Moreover, the “Proportion … (%)” value in test [7] came out at 67%.

B9: S002-NB151-36 VHH-Fc (Fc fusion)
chain: QVQLVESGGGLVQAGGSLRLSCAASGLTFSYYGMGWFRQAPGKEREFVAAINWSGTSTYYADSVKDRFTVSRDNAKNTAYLHMNNLKPEDTAVYYCAARKYSSSQAMGLPNDIDYWGQGTQVTVSS[human IgG1 Fc with changes cut from this listing]
notes: VHH cloned into vector BI3.4-huIgG1 (hinge and human IgG1 Fc), made in HEK293E; also called 5002-NB151-36
Turning to B9, the OD450 with human CD22-ECD-His [1] was 2.21; with murine CD22-ECD-His [2] it was 0.05; with murine CD22-ECD-His [3] it was 0.07; with human CD22-ECD-His [4], 0.24; with murine CD22-ECD-His [5], 0.06. In addition, in test [7], the “Proportion … (%)” value stood at 5%.

B10: S002-NB151-66 VHH-Fc (Fc fusion)
chain: QVQLVESGGGLVQAGGSLRLACAASGDTVSIYYMGWFRQAPGKEREFVGALSASGQFTDHADSVKGRFTISRDDAQNTVFLHMNDLKPEDTAVYYCAVQRYGWVYRTDKTMYNYWGQGTQVTVSS[human IgG1 Fc with changes cut from this listing]
notes: as for B4
With B10, the OD450 was 1.43 with human CD22-ECD-His [1]; 0.06 with murine CD22-ECD-His [2]; 0.14 with murine CD22-ECD-His [3]; 0.26 with human CD22-ECD-His [4]; 0.08 in the test with murine CD22-ECD-His [5]; 0.14 with human CD22-ECD-His [6]. In addition, in test [7], the “Proportion … (%)” value amounted to 20%.
